Data published in PubChem BioAssay AID488969 (Vanderbilt High Throughput Screening Facility, 2010).
The full ranking holds about 110,000 compounds; the median of “z-score” is about -0.1, and the highest 2% start at about 2. The list shows a part of the results. Active and inactive are the calls of the source.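 How the source made its calls: active means z-score in the third read window above 3 or below -3; inactive means the rest.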

The compounds below were run against Metabotropic glutamate receptor 8 (Rattus norvegicus) (UniProt P70579) (assay: rat mGluR8 modulators via GIRK flux, primary screen, cell-based, thallium flux, HTS (AID 488969)). Settings: HEK293 rat mGluR8, GIRK (G protein-gated inwardly rectifying potassium channel) thallium flux, FluoZin2; at 10 µM; stronger effect = higher value; submaximal glutamate (EC20) added with thallium.
Sequence of UniProt P70579 (P70579 whole entry, looked up): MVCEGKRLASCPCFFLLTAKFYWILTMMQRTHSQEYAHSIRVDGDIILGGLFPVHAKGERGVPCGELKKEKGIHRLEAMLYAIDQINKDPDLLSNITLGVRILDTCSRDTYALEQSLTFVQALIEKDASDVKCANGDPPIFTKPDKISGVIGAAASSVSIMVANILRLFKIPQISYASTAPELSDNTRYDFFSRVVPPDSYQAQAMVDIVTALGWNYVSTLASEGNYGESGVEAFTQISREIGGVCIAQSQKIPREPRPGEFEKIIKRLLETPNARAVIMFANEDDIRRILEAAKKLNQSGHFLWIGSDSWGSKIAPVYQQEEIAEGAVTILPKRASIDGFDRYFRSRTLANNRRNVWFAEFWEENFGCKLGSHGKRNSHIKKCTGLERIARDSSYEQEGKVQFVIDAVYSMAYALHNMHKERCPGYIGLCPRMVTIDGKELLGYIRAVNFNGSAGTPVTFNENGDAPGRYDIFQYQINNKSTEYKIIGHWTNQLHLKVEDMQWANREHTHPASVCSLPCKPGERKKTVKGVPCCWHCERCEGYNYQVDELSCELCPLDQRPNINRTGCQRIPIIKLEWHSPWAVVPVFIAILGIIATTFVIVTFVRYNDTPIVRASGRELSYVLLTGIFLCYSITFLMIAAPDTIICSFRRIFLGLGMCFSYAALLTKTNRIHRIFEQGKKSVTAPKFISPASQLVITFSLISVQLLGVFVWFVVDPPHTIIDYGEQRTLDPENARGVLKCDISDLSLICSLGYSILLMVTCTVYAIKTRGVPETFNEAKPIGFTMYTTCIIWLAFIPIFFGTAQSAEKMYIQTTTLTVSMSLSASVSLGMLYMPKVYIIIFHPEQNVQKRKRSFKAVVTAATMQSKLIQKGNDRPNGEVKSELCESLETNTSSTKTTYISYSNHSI

| Structure (SMILES) | z-score |
| --- | --- |
| CCOC(=O)COc1ccc(-c2nnc(-c3ccccc3)o2)cc1 | -0.176 |
| O=C1CC(c2cccc([N+](=O)[O-])c2)c2c(ccc3ccccc23)N1 (configuration not stated) | -0.0524 |
| O=S(=O)(c1ccc(S(=O)(=O)N(Cc2cccs2)CC2CCCO2)cc1)N1CCCCC1 (configuration not stated) | 1.7 |
| CCSc1ncc(Cl)c(C(=O)Nc2ccccc2)n1 | -0.43 |
| CCOC(=O)Cn1c(=O)oc2cc(S(=O)(=O)Nc3cccc(C)c3)ccc21 | 0.058 |
| CC/C(=N\NC(=O)c1ccccc1Cl)c1ccc(Br)s1 | 0.216 |
| Cc1ccc(S(=O)(=O)N2C3C=CC(C3)C2C(=O)O)cc1 (configuration not stated) | 0.75 |
| C=CCN(C(C)=O)C1CC(=O)N(c2ccc(OCCC)cc2)C1=O (configuration not stated) | -0.00882 |
| Cc1ccccc1-n1c(O)c(/C=N/N2CCCCC2c2cccnc2)c(=O)[nH]c1=O (configuration not stated) | -0.187 |
| O=C(CN(Cc1ccc2c(c1)OCO2)C(=O)CSc1nc2ccccc2o1)NC1CCCCC1 | -0.225 |
| Cc1ccc(NC(=O)c2cccc(NC(=O)/C=C/c3ccco3)c2)cc1C | -0.217 |
| CCOC(=O)c1cnc2c(Cl)cccc2c1NCCN1CCOCC1 | -0.145 |
| Cc1sc2nc(CN3CCCC3)nc(N3CCN(S(=O)(=O)c4cccs4)CC3)c2c1C | active: 4.12 |
| CCCCCn1c(Sc2nc3ccccc3s2)nc2c1c(=O)[nH]c(=O)n2C | -0.211 |
| CCOC(=O)N1CCC(N2C(=O)c3ccccc3C2Nc2ccccc2)CC1 (configuration not stated) | -0.126 |
| CCC1(C)NC(=O)N(CC(=O)N2N=C(c3ccccc3)CC2c2ccc(OC)cc2)C1=O (configuration not stated) | 0.0737 |
| CCOP(=O)(OCC)C(NC(=O)Nc1ccccc1)C(N)=O (configuration not stated) | -0.102 |
| COC(=O)CSc1nnc(SCc2ccccc2)s1 | -0.258 |
| CCOc1ccc(C(=O)Nc2ccccc2N2CCCC2)cc1 | 0.612 |

| Structure (SMILES) | z-score |
| --- | --- |
| CCOc1ccccc1NC(=O)c1ccccc1NS(C)(=O)=O | 0.0037 |
| Cc1cc(C)nc(NC(=O)CSc2nc3cc(Cl)ccc3s2)n1 | -0.174 |
| CC(C)Cn1cnc2c(=O)oc3ccccc3c21 | -1.48 |
| CCC(=O)Nc1ccc2oc(-c3cccc(C)c3)nc2c1 | -0.279 |
| CCOc1ccc(OCCN(C)Cc2ccccc2)cc1 | 0.127 |
| O=C(NCc1ccccc1Cl)c1ccccc1CCc1ccccc1 | -0.873 |
| CCNC(=O)CN1C(=O)NC2(CCCCCC2)C1=O | 0.0257 |
| CCCCn1nc2cc(C(=O)NCC34CC5CC(CC(C5)C3)C4)ccc2c1OC | -0.2 |
| Cc1ccccc1-c1nc2ccccc2o1 | -0.134 |
| NC(=O)NCCC1=CCCCC1 | -0.106 |
| COC(=O)c1ccc(NC(=O)CSc2ccccc2)cc1 | 0.651 |
| COc1ccccc1OCC(=O)NNC(=O)C(=O)N1CCCC1 | 0.41 |
| CN1CCN(CCC(=O)N2c3ccccc3Sc3ccc(Cl)cc32)CC1 | -0.245 |
| Cc1cccc(OCC(=O)O/N=C(\N)c2ccccn2)c1 | -1.72 |
| CC1(C)CC(NC(=O)COc2ccc3ccccc3c2)CC(C)(C)N1 | 0.622 |
| CSCc1cc(N2CCOCC2)nc(SCc2ccc(Cl)cc2Cl)n1 | -0.112 |
| Cc1ccn2c(C(=O)CSc3ccc(Cl)cc3)c(C)nc2c1 | -0.0783 |
| CCC(C)N(CCNC(=O)CC1Oc2ccccc2NC1=O)C1CCCCC1 (configuration not stated) | 0.552 |
| O=C(NCC(c1cccnc1)N1CCN(c2ccc(F)cc2)CC1)c1ccc2c(c1)OCO2 (configuration not stated) | 0.329 |

| Structure (SMILES) | z-score |
| --- | --- |
| CSCCC(NC(=O)CCN1C(=O)c2ccccc2C1=O)C(=O)O (configuration not stated) | -0.451 |
| CCOC(=O)CC(NC(=O)Cc1ccccc1)c1ccccc1Cl (configuration not stated) | 0.159 |
| CC(C)CCC(C(=O)O)C(C)CC(=O)NC1CCCCC1 (configuration not stated) | 0.274 |
| CSc1nc2ccc(NS(=O)(=O)c3ccccc3F)cc2s1 | -0.495 |
| Cc1c(NC(=O)c2cc(-c3ccc(Cl)s3)nc3ccccc23)c(=O)n(-c2ccccc2)n1C | -0.639 |
| CCCS(=O)(=O)Nc1cc(C(F)(F)F)ccc1OCCOC | 1.49 |
| Cc1cc2oc(=O)cc(CN3CCOCC3)c2cc1C | -0.0906 |
| O=C(O)CCSc1nnc(-c2cccnc2)n1-c1ccccc1 | -0.119 |
| COc1ccc(NC(=O)N2CCCCC2)cc1 | 0.0992 |
| C/C(=N\NC(=O)c1nn(C)cc1Br)c1cccc(NC(=O)C2CCCC2)c1 | -0.261 |
| Cc1nn(-c2ccccc2)c2sc(-c3nnc(SCC(=O)O)o3)cc12 | 0.0762 |
| Cc1nn(C)cc1/C=N/NC(=O)Cn1nccc1C | 0.6 |
| O=C(NNC(=O)C1C2CCC(C2)C1C(=O)O)c1ccc(Br)o1 (configuration not stated) | 1.08 |
| Cc1ccc(NC(=O)c2cc(S(=O)(=O)NCCC3=CCCCC3)ccc2F)cc1F | -0.316 |
| N#Cc1ccc(Oc2nc(C#N)cc(-c3ccccc3)n2)cc1 | -0.015 |
| Cc1cc(C)c(COCc2cc(/C=N/O)c(C)cc2C)cc1/C=N/O | 0.0209 |
| Cc1c2ccccc2nc2c(F)c(N(C)C)c(F)c(F)c12 | -0.214 |
| CCOC(=O)CC(=O)CSc1nc2nc(C)cc(C)n2n1 | 0.214 |
| CC(C)CCNC(=O)c1ccc(Cl)c(NC(=O)Cc2ccccc2)c1 | -0.322 |
